The source of these data is article PMC10668032.

The other results are listed elsewhere or left out. At the low end of the ranking the order means little.

The target of the assay is SIX1-Q177R homeodomain (UniProt Q15475). The assay can be described thus: universal protein binding microarray. The following applies: Universal all-10-mer PBM (8x60K, AMADID 030236), 300 nM GST-tagged protein, Alexa Fluor 488 anti-GST; buffer, salt, pH and temperature not stated; high values mean tight binding; most listed sequences are background and not binding sites; double strand, one strand shown.
With GAACTCAC, the binding signal is -0.222 E-score.

For the sequence CACAAGTC, the binding signal was -0.0537 E-score.

With CCACGAAA, the binding signal was -0.154 E-score.

CCTAAATA: the binding signal was -0.113 E-score.

As for AATTGGAG, the binding signal was 0.0907 E-score.

For the sequence AGGCCAAC, the binding signal was -0.115 E-score.

Take CCTTAGCA: the binding signal was 0.0503 E-score.

As for TAACACCA, the binding signal came to 0.477 E-score.

For CGTATGAG, the binding signal was -0.227 E-score.

GTCGGCGA: the binding signal was -0.0434 E-score.

With ACACGCAG, the binding signal came out at 0.391 E-score.

Take GGTCAGCA: the binding signal was 0.101 E-score.

Turning to GTAATGAA, the binding signal was -0.0471 E-score.

For the sequence AGCCTTCA, the binding signal was -0.219 E-score.

Turning to CTGTCTGA, the binding signal was -0.175 E-score.

Regarding CCCCTGCA, the binding signal stood at 0.17 E-score.

For the sequence CACACGTC, the binding signal stood at 0.221 E-score.

Take ACGTTCCC: the binding signal was -0.178 E-score.

Turning to CGCGGTTC, the binding signal is 0.0535 E-score.

In the case of CATGTGTA, the binding signal worked out at 0.259 E-score.

As to GGGGCTGA, the binding signal is -0.146 E-score.

Take TTACATAA: the binding signal is -0.175 E-score.

As to ACCAAGTG, the binding signal is 0.208 E-score.

AACCTTCG: the binding signal was -0.117 E-score.

Take GGGCGCCA: the binding signal was -0.0529 E-score.

With GGAAAGAC, the binding signal is -0.223 E-score.

As for AAAACTGC, the binding signal is -0.125 E-score.

As for CAGATATA, the binding signal was -0.0556 E-score.

For ATATTTTC, the binding signal came to 0.00235 E-score.

As to GGTTGGAC, the binding signal was -0.0405 E-score.

Take CAGCGTTA: the binding signal turned out to be 0.187 E-score.

For AATGAAAA, the binding signal is -0.185 E-score.

TCGACTCA: the binding signal amounted to 0.115 E-score.

Turning to AAAAACAT, the binding signal was -0.329 E-score.

In the case of CTTGTACA, the binding signal amounted to 0.154 E-score.

Regarding ACAGTGGA, the binding signal was -0.132 E-score.

As for GATATTGC, the binding signal is -0.0693 E-score.

Take ATATCGAC: the binding signal worked out at 0.101 E-score.

For CAGCACTA, the binding signal is -0.107 E-score.

For GGGAGACA, the binding signal came to 0.199 E-score.

As to ATAGCTGA, the binding signal is -0.192 E-score.

In the case of CTAAATAA, the binding signal is -0.0922 E-score.

Consider CGAAAAGA, for which the binding signal was 0.135 E-score.

Regarding GAGTACCA, the binding signal is 0.0878 E-score.

Consider ACTTCTAG, for which the binding signal was -0.0924 E-score.

Consider AGTATGAG, for which the binding signal amounted to 0.0275 E-score.

As to AGATTACA, the binding signal was determined as 0.23 E-score.

As for TAAATTGA, the binding signal was -0.0417 E-score.

As to AATGTCAA, the binding signal worked out at 0.0224 E-score.

TGCGTCCA: the binding signal is -0.203 E-score.

With AAAGCGAT, the binding signal was -0.241 E-score.

For CGACAATC, the binding signal stood at 0.0765 E-score.

Consider AAATTTTC, for which the binding signal was -0.239 E-score.

Turning to CTAATGAC, the binding signal was -0.0321 E-score.

As to AAAGCGCT, the binding signal is -0.365 E-score.

CGGCATTC: the binding signal is -0.207 E-score.

For the sequence TAACCTGA, the binding signal is -0.178 E-score.

As to CAGCAGGG, the binding signal was -0.123 E-score.

Turning to TCAATCAA, the binding signal is -0.294 E-score.

Take AGATTAAT: the binding signal is -0.0266 E-score.

With CAGCCAAA, the binding signal is -0.256 E-score.

As for ATCTGTGC, the binding signal is -0.169 E-score.

ACTATCCG: the binding signal amounted to 0.101 E-score.

On to AATTGCAG, for which the binding signal was -0.129 E-score.

As to TGCGTAAA, the binding signal was -0.156 E-score.

For the sequence GGGTCAAA, the binding signal worked out at 0.171 E-score.

Consider ACCGAATG, for which the binding signal turned out to be 0.173 E-score.

Consider ATTATGAA, for which the binding signal was -0.258 E-score.

For the sequence ACTAACCT, the binding signal is 0.0431 E-score.

As for ATAGCTAC, the binding signal is -0.0865 E-score.

With ACTTAACA, the binding signal was determined as 0.0969 E-score.

With ATCCATGC, the binding signal is -0.0906 E-score.

In the case of CACCGACC, the binding signal was 0.262 E-score.

As for ACTTTCGA, the binding signal was -0.0602 E-score.

In the case of GCACCGGA, the binding signal turned out to be 0.162 E-score.

On to GTTAATGA, for which the binding signal was -0.0906 E-score.

As to TCCGTTAA, the binding signal was -0.0572 E-score.

Regarding GGAGTGGA, the binding signal was 0.093 E-score.

On to AGTCACCG, for which the binding signal worked out at 0.0642 E-score.

Consider AATCCTAG, for which the binding signal was -0.19 E-score.

Consider ATGCCCGA, for which the binding signal is -0.072 E-score.

With CTTAGAAG, the binding signal came to 0.00932 E-score.

In the case of ATCTTTCA, the binding signal is 0.163 E-score.

As to CTGCCGGC, the binding signal was -0.173 E-score.

As for CAGGGCCC, the binding signal was -0.108 E-score.

As for ACTGGCAC, the binding signal is 0.152 E-score.

AATAAACA: the binding signal is 0.218 E-score.

Take GTTTGACA: the binding signal was 0.193 E-score.

Consider AAGTCCCC, for which the binding signal was -0.276 E-score.

For CGTGCTAC, the binding signal was determined as 0.179 E-score.

Turning to CGTGTAGC, the binding signal came out at 0.416 E-score.

With GCGTTGCA, the binding signal was -0.104 E-score.

AAGGCCGC: the binding signal is -0.238 E-score.

Consider ATCCCCCA, for which the binding signal amounted to 0.24 E-score.

For ATTTTGCA, the binding signal was -0.225 E-score.

With ACGGCCGC, the binding signal was -0.167 E-score.

Regarding CTGGTATA, the binding signal turned out to be 0.0285 E-score.

Consider ATCAAAGA, for which the binding signal is -0.0772 E-score.

On to CAAGTCAA, for which the binding signal was -0.178 E-score.

For CCCGTCCC, the binding signal was found to be 0.105 E-score.

GCACCGGC: the binding signal was determined as 0.137 E-score.

Consider GGTGGCCA, for which the binding signal came to 0.0254 E-score.

As to ACGTGGTG, the binding signal worked out at 0.359 E-score.

For ACCGTTTA, the binding signal was -0.0638 E-score.

In the case of GAGTAATC, the binding signal was 0.0545 E-score.

Turning to AAGTTTGG, the binding signal is -0.257 E-score.

As to CTCTACTC, the binding signal is 0.108 E-score.

Regarding TCCATAAA, the binding signal was -0.259 E-score.

Regarding ATATACAC, the binding signal is 0.409 E-score.

Take CAACCGAG: the binding signal was -0.0615 E-score.

As to AAAGCGTA, the binding signal is -0.142 E-score.

On to ACCCGGAC, for which the binding signal stood at 0.171 E-score.

For ACGTCCCA, the binding signal was -0.108 E-score.

On to AGACACTA, for which the binding signal was 0.343 E-score.

As for CTCCAAGA, the binding signal was found to be 0.081 E-score.

With AGCTTTAT, the binding signal is -0.267 E-score.

As to CCTGCCAA, the binding signal was -0.134 E-score.

For the sequence ACACAATA, the binding signal turned out to be 0.123 E-score.

As for AAGTTGGA, the binding signal was -0.00404 E-score.

For the sequence ATTCCAAG, the binding signal was -0.0565 E-score.

Take CACAGCAG: the binding signal worked out at 0.0132 E-score.

Consider CCATGAAC, for which the binding signal was determined as 0.147 E-score.

Turning to ATTAGTGC, the binding signal is -0.0942 E-score.

As for CGGCGCCC, the binding signal is -0.0615 E-score.

For the sequence ACGTATAA, the binding signal is -0.0599 E-score.

As for ATGCCGTA, the binding signal was -0.155 E-score.

In the case of ACTCATCG, the binding signal is -0.0319 E-score.

Turning to CAATTGCC, the binding signal is -0.146 E-score.

As to ACTCTTGG, the binding signal came out at 0.139 E-score.

With AGGAGCGC, the binding signal is -0.204 E-score.

On to AGCGGTAC, for which the binding signal turned out to be 0.133 E-score.

Turning to ACCTTCTC, the binding signal was found to be 0.118 E-score.

Regarding AGGGTCTA, the binding signal worked out at 0.0215 E-score.

As for GCATTACA, the binding signal worked out at 0.169 E-score.

On to GCGTAAAA, for which the binding signal was -0.09 E-score.

With AATTGTGA, the binding signal worked out at 0.0761 E-score.

On to AGTAAACT, for which the binding signal was -0.0978 E-score.

As to AAGATTGA, the binding signal is -0.0996 E-score.

Turning to ACTACGGC, the binding signal was -0.076 E-score.

On to CGATTGCC, for which the binding signal was -0.0397 E-score.

In the case of CTCATTAC, the binding signal came out at 0.0347 E-score.

With TACTTCTA, the binding signal is -0.00954 E-score.

As to AATGCAGT, the binding signal is -0.0926 E-score.

Turning to GGCCGAAA, the binding signal was -0.152 E-score.

With CCCTGACC, the binding signal turned out to be 0.127 E-score.

As to ACGGATAT, the binding signal was -0.038 E-score.

Regarding CTCTTGGA, the binding signal was found to be 0.126 E-score.

AGTAGTAG: the binding signal is 0.0228 E-score.

TGCTCAAA: the binding signal was -0.056 E-score.

Regarding ACGCTGTG, the binding signal came to 0.142 E-score.

As for AATGGTCT, the binding signal was -0.0633 E-score.

For the sequence ACACCGGC, the binding signal worked out at 0.481 E-score.

In the case of ACAAACGT, the binding signal was -0.154 E-score.

For GGGTTGGA, the binding signal came to 0.0991 E-score.

Turning to AGTTATTC, the binding signal was -0.0971 E-score.

Consider AGCATGCC, for which the binding signal is -0.308 E-score.

For ATCGGCCA, the binding signal is -0.183 E-score.

As to TGGGACCA, the binding signal came out at 0.0764 E-score.

For the sequence GCCACATA, the binding signal is -0.109 E-score.

GTCCGGCA: the binding signal was -0.0338 E-score.

TGGCACAA: the binding signal was -0.0686 E-score.

Turning to GATGACGA, the binding signal is -0.244 E-score.

Take ATCAGGAA: the binding signal is -0.24 E-score.

Turning to ATGGTTTG, the binding signal was -0.0854 E-score.

On to AATCGGAG, for which the binding signal is 0.0218 E-score.

For ACACTTAT, the binding signal came out at 0.349 E-score.

Turning to CAAGGCTC, the binding signal is -0.0923 E-score.

Turning to CCATAATA, the binding signal is -0.0307 E-score.

Consider GAGACTCA, for which the binding signal was -0.151 E-score.

For CGGCAGGC, the binding signal was -0.0997 E-score.

As for ATGAGATG, the binding signal is -0.172 E-score.

As for GAATTTTA, the binding signal is -0.00855 E-score.
